Assay results: PubChem BioAssay AID504466 (National Center for Advancing Translational Sciences (NCATS), 2011)
The campaign covered roughly 330,000 compounds. About 4,200 (1.3%) were called active. This list was built around the results that the source calls inconclusive (neither active nor inactive); the mix of calls is not that of the screen. The call rests on the fitted dose curve; in most records, active means well fitted activation curve with a large enough effect; inconclusive means small, poorly fitted or top-dose-only effect; inactive means no such curve, though single readings can be large or run the other way. Potencies beside an inconclusive call are fits to weak or partial responses and may not hold up.

experiment: qHTS screen for small molecules that induce genotoxicity in human embryonic kidney (HEK293T) cells expressing luciferase-tagged ELG1; conditions: HEK293T ELG1-luciferase reporter, luminescence, 16 h; series mostly up to 46 µM; further: nearly all actives have a fitted effect of over 60% in size
Outline: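 Reporter readout depends on ELG1 protein level, which increases with genetic stress. After 16 hr compound exposure at 37 °C, luciferase activity was quantified using ONE-Glo.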
Potency means the concentration at half of the fitted maximal effect; tags describe the fitted curve by direction and shape.

Row | Compound | Potency
1 | Cc1cccc(/C=N/NC(=O)c2ccc3c(c2)OCCO3)c1O | active: 0.13 µM
2 | c1ccc(COc2ccc(OCCCNC3CCCC3)cc2)cc1 | inconclusive: 12.6 µM [activator, partial curve, poor fit]
3 | Cc1ccsc1/C=C1\SC(N2CCOCC2)=NC1=O | inconclusive: 20.6 µM [activator, partial curve, poor fit]
4 | Cc1nc(N2CCC(C)CC2)c2c(C)c(C(=O)Nc3ccc4c(c3)OCCO4)sc2n1 | inactive
5 | COc1cc(-c2n[nH]c(=S)n2-c2ccccc2C(F)(F)F)cc(OC)c1OC | inconclusive: 18.3 µM [activator, partial curve, poor fit]
6 | Cc1ccc(NC(=O)CNC(=O)c2cccc(Cl)c2)nc1 | inconclusive: 25.9 µM [activator, single point]
7 | COc1ccc(NC(=O)COC(=O)C2CC(=O)N(c3ccc(C)cc3)C2)cc1 (stereo not given) | inconclusive: 29.1 µM [activator, single point]
8 | Nc1ccc(O)c2c(=O)cc(-c3ccccc3Cl)oc12 | inconclusive: 16.4 µM [activator, partial curve]
9 | Clc1ccc(OCc2noc(-c3ccsc3)n2)c(Cl)c1 | inconclusive: 9.2 µM [activator, partial curve]
10 | CCCN(CC(=O)Nc1ccccc1C)C(=O)c1ccc(NC2CC2)c([N+](=O)[O-])c1 | inactive
11 | COc1ccc(-c2cc(C)nc3nc(N)nn23)cc1 | inconclusive: 25.9 µM [activator, partial curve, poor fit]
12 | CC(=O)Nc1cc2ccc(OC(C)=O)cc2oc1=O | inconclusive: 16.4 µM [activator, partial curve, poor fit]
13 | CC1CC(C)(C)NC(=S)N1CCCC(=O)Nc1ccc(F)cc1 (stereo not given) | inactive
14 | CC(C)Oc1ccc(C(=O)Nc2ccc([N+](=O)[O-])cc2)cc1 | inconclusive: 20.6 µM [activator, partial curve, poor fit]
15 | Cc1c2ccccc2c(C)c2c1ccc1ccccc12 | active: 18.3 µM
16 | CC(=O)Nc1cccc(OCC(=O)NC(C)c2ccc3ccccc3c2)c1 (stereo not given) | inactive
17 | CC1CCc2c(sc3ncn(Cc4ccc(C(=O)O)cc4)c(=O)c23)C1 (stereo not given) | inconclusive: 16.4 µM [activator, partial curve, poor fit]
18 | Cc1ccc(C)c(NC(=O)CSc2nnc(-c3ccccc3)n2N)c1 | inactive
19 | Cc1c(C(=O)NC2=NCCS2)oc2ccccc12 | inconclusive: 1.12 µM [activator, full curve, poor fit]
20 | COc1cccc(NC(=O)C(=S)NC2CCCCC2)c1 | inconclusive: 2.06 µM [activator, full curve]
